Reference: patent US20260232828A1, “LIGAND-CYTOTOXICITY DRUG CONJUGATES AND PHARMACEUTICAL USES THEREOF” (HANSOH BIO LLC, priority 2023, published 2026)

Tests used:
[1] = tested on: CDH17 positive cell line AsPC1, GP2d and CDH17 negative cell line SW480; assay: Flow cytometry binding of hybridoma supernatants to CDH17 expressing cancer cells; design: species or system human; settings: undiluted hybridoma supernatant, in words
Procedure: Hybridoma supernatants were subjected to binding tests on CDH17 positive cell line AsPC1 (ATCC, CRL-1682), GP2d (Creative bioarray, CSC-J9456), and CDH17 negative cell line SW480 (ATCC, CCL-228) using flow cytometry analysis. Briefly, 50 μL of cells in cell staining buffer (2×10^6 cells/mL) was mixed with 50 μL undiluted supernatants. The mixture was incubated on ice for 1 hour and then washed with ice-cold staining buffer twice. The cells were subsequently stained with 50 μL of PE labeled secondary antibody (1:250 dilution, Biolegend, Cat #405307) for 20 min. After washing by staining buffer and fixing by 4% PFA, cells were analyzed by flow cytometry.
A purified anti-human CDH17 antibody was used as a positive control (Sino Biological, Cat #11360-MM02). A purified mouse IgG1 antibody was used as isotype control (Biolegend, Cat #400102).

BSA = BSA (Bos taurus, UniProt P02769); assay: ELISA binding of hybridoma clones to BSA (specificity control); settings: hybridoma supernatant; plate coated with BSA
Chain of BSA (P02769 25-607): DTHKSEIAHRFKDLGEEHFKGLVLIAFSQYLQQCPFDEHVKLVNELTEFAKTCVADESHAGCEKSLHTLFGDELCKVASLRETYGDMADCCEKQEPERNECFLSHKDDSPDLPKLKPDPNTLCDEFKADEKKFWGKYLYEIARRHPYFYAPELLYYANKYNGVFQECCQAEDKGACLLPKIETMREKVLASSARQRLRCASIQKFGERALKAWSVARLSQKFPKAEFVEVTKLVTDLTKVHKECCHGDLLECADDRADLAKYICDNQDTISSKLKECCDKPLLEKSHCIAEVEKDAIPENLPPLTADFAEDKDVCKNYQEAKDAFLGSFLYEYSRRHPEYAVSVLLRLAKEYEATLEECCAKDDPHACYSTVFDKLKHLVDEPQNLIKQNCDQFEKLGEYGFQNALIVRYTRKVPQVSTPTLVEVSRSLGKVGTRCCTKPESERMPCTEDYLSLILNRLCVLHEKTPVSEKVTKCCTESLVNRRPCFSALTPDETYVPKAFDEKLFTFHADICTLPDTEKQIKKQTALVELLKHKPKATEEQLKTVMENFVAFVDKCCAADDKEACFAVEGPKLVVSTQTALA
Procedure: (§1) ELISA was performed using the DuoSet ELISA Ancillary Kit (R&D System, DY008). ELISA plates were coated with 1 μg/ml of human CDH17 His Tag (Sino biological, catalog number 11360-H08H), or BSA overnight. Excess unbound proteins were washed off by washing the plates three times with the wash buffer before blocking for 1 hour at room temperature. 100 μl CDH17 hybridoma supernatant was added in each well and incubated for 1 hour at room temperature. Excess unbound antibodies were washed off and 100 μl of 1:30000 diluted secondary antibody Goat anti-mouse IgG Fc-HRP (ab5870) was added to each well for another 1 hour. Plates were washed before the addition 50 μL of […] (color A and color B) according to manufacturer's protocol. The reactions were stopped using 25 μL of stop solution. Optical density at 450 nm of samples was measured by a microplate reader (PerkinElmer). All tested clones bound selectively to human CDH17 but not BSA.

AsPC1 cells = assay: Indirect killing assay (cell internalization) of hybridoma supernatants; assay type: cell-based, human; settings: hybridoma supernatant with Fab anti-mouse IgG Fc-MMAF 20 nM, in words
Procedure: Cell internalization activities of hybridoma supernatants were measured using an indirect killing assay in AsPC1 cells. The AsPC1 cells were seeded in 96 well plate at 8,000 cells/well with propidium iodide (abeam, Cat #ab14083) at 500 ng/mL and SPY650-DNA (Cytoskeleton, Inc., Cat #CYSC501) at 1:2000 dilution. Cells were incubated overnight at 37° C. in 5% CO2. The hybridoma supernatants from each hybridoma clone were diluted with hybridoma culture medium containing 500 ng/mL propidium iodide and 2000-fold diluted SPY650-DNA and mixed with Fab anti-mouse IgG Fc-MMAF conjugates with cleavable linker (Moradec, AM-202AF), then added to each well. The final concentrations of mouse IgG were roughly 10 nM, 3.33 nM, and 1.11 nM. The final concentration of the Fab anti-mouse IgG Fc-MMAF conjugates in each well was 20 nM. With the presence of secondary Fab-vc-MMAF, the internalized antibody/Fab-vc-MMAF conjugates complex will release the cytotoxic payload and kill the cells. Cytation5 (Agilent) was used to detect the viability of the cells in each well by imaging the plates every 8 h.
A purified anti-human CDH17 antibody was used as a positive control (Invitrogen, Cat #MA5-29135). A purified mouse IgG1 antibody was used as isotype control (Biolegend, Cat #400102).

human CDH17 His Tag = biological target: T1, human CDH17 His Tag (Homo sapiens, UniProt Q12864); assay: ELISA binding of hybridoma clones to human CDH17 protein; settings: hybridoma supernatant; plate coated with 1 μg/ml antigen
T1 construct: His tag; purchased Sino biological 11360-H08H
Procedure: as §1

B1: 1H10: anti-CDH17 antibody; SEQ ID NO: 77 (heavy chain) and 78 (light chain) (antibody, listed as Homo sapiens)
heavy: QVQLVESGGGVVQPGRSLRLSCVASGFTFSSYGMHWVRQAPGKGLEWVTFIWYDGSNKNYADSVKGRFTISRDNSKNTLNLQMNSLRVEDTAVYYCARDRYSSGWDVFDYWGQGTLVTVSS[letters of human IgG1 constant region omitted]
light: DIQMTQSPSSVSASVGDRVTITCRASQDISSWLAWYQQQPGKAPKLQIYAASSLQSGVPSRFSGSGSGTDFTLTISSLQPEDFATYYCQQAKSFPPTFGQGTKVEIKRTVAAPSVFIFPPSDEQLKSGTASVVCLLNNFYPREAKVQWKVDNALQSGNSQESVTEQDSKDSTYSLSSTLTLSKADYEKHKVYACEVTHQGLSSPVTKSFNRGEC
Question: B1 was tested. Which “binding profile to CDH17 positive versus negative cells” value [1] did it give?
Answer: enhanced binding profile to AsPC1 cells and GP2d cells compared to SW480 cells

Question: And the “Protein binding (BSA)” value (BSA)?
Answer: 0.0399 OD450

Question: And the cell internalization activity (AsPC1 cells)?
Answer: capable of internalizing into CDH17 positive cell line

Question: And the “Protein binding (human CDH17)” value (human CDH17 His Tag)?
Answer: 1.7895 OD450

B2: 15A4: anti-CDH17 antibody; SEQ ID NO 91 (heavy chain) and 92 (light chain) (antibody, listed as Homo sapiens)
heavy: QVQLVESGGGVVQPGRSLRLSCAASGFNFSSYGMHWVRQAPGKGLEWVAFVWYDGSNQNYADSVKGRFTISRDNSNNTLYLQMNSLRAEDTAVYYCARDRYSSGWDVFDYWGQGTLVTVSS[letters of human IgG1 constant region omitted]
light: DIQMTQSPSSVSASVGDRVTITCRASQGISSWLAWYQQKPGKAPKLLIFAASSLQSGVPSRFSGSGSGTGFTLTISSLQPEDFATYYCQQAKSFPPTFGQGTKVEIKRTVAAPSVFIFPPSDEQLKSGTASVVCLLNNFYPREAKVQWKVDNALQSGNSQESVTEQDSKDSTYSLSSTLTLSKADYEKHKVYACEVTHQGLSSPVTKSFNRGEC
Question: Which “binding profile to CDH17 positive versus negative cells” value [1] does the source give for B2 here?
Answer: enhanced binding profile to AsPC1 cells and GP2d cells compared to SW480 cells

Question: What about the “Protein binding (BSA)” value (BSA) of the same molecule?
Answer: 0.0431 OD450

Question: And the cell internalization activity (AsPC1 cells)?
Answer: capable of internalizing into CDH17 positive cell line

Question: And the “Protein binding (human CDH17)” value (human CDH17 His Tag)?
Answer: 1.6026 OD450
